# Results taken from publication PMC4365481, “ICAM-5 affects spine maturation by regulation of NMDA receptor binding to α-actinin” (Biology Open, 2015).
# B1: His6-GluN1 cytoplasmic domain ([…]) (domain or fragment)
# chain: not shown
# notes: NMDA receptor subunit GluN1 (NR1), cytoplasmic domain, […]; also called GluN1 cytoplasmic peptide; source: E. coli BL21(DE3)pLysS, pET21b, purified; not shown: His6, C-terminal, kept
# Molecular target: T1, GST-α-actinin R2 (UniProt P05094 387-510)
# T1 construct: alpha-actinin, spectrin repeat R2 of the rod domain; construct as described in Gilmore et al., 1994 and Nyman-Huttunen et al., 2006; also called R2 domain; GST-R2
# Assay: pull-down; competition: 2 µg GST-α-actinin R2 on glutathione-sepharose, cross-linked with dimethyl pimelimidate; 1 ml of 250 nM ICAM-5 cytoplasmic domain with increasing amounts of His6-GluN1 cytoplasmic domain, RT 1 h; bound ICAM-5 by western blotting, band intensities fitted to an exponential decay curve
# Details: both partners purified
# Sequence of GST-α-actinin R2 (P05094 387-510): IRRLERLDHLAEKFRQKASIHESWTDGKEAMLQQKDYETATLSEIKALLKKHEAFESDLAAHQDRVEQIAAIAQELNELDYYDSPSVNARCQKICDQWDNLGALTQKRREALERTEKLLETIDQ
binder,measurement,value
B1,IC50,~340 nM
